{"source": "PubChem BioAssay AID588591", "about": "(National Center for Advancing Translational Sciences (NCATS), 2011)", "note": "Out of some 390,000 compounds screened, about 4,700 (1.2%) were called active. The shares of active, inactive and inconclusive entries below differ from those in the screen. The call rests on the fitted dose curve; in most records, active means well fitted inhibition curve with a large enough effect; inconclusive means small, poorly fitted or top-dose-only effect, or another doubt; inactive means no such curve, though single readings can be large or run the other way. Where the call is inconclusive, the potency comes from a doubtful curve fit. Potency means the concentration at half of the fitted maximal effect; tags describe the fitted curve by direction and shape."}
{"target": "DNA polymerase eta (Homo sapiens) (UniProt Q9Y253)", "sequence (Q9Y253 whole entry, looked up)": "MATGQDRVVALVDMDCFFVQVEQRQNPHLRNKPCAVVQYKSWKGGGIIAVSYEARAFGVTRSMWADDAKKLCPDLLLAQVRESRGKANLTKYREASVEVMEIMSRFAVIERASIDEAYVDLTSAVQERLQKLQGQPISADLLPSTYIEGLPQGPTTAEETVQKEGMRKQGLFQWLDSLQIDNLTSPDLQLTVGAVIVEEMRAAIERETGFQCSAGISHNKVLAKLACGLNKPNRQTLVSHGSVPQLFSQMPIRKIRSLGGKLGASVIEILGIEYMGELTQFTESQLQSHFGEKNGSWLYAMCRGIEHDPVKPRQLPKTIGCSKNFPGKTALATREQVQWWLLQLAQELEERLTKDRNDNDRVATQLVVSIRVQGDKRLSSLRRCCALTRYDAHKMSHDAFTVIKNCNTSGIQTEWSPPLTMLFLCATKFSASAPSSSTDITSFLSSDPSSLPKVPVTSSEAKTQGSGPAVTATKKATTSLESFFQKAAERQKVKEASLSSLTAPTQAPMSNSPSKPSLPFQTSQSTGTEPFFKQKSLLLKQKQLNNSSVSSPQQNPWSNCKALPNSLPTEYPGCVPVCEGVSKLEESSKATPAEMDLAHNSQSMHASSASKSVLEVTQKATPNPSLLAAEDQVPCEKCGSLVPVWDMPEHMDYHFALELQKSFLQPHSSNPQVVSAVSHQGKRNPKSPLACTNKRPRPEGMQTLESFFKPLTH", "assay": "qHTS for Inhibitors of Polymerase Eta", "settings": "recombinant Pol eta, fluorescent DNA replication assay; series mostly up to 114 µM", "outline": "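Pol eta (10 nM) was preincubated with compounds for 15 min at room temperature, after which fluorescent replication substrate (50 nM final) was added to start the reaction. Fluorescence was read kinetically at 0 and 10 min.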"}
{"smiles": "Cc1cc(C)c(NC(=O)CCS(=O)(=O)c2cc3c(cc2Cl)NC(=O)CO3)c(C)c1", "Potency": "inactive"}
{"smiles": "CCCSc1nnc(NC(=O)c2sc3nc(-c4cccs4)ccc3c2N)s1", "Potency": "active: 79.4 µM"}
{"smiles": "CC(=O)C1=C(C)N(Cc2ccccc2)C(=O)N[C@H]1c1cccc(F)c1", "Potency": "inactive"}
{"smiles": "CCc1cccc(NC(=O)CCS(=O)(=O)c2ccc(Br)cc2)c1", "Potency": "active: 25.1 µM"}
{"smiles": "CC(NC(=O)CSc1n[nH]c(-c2ccccc2Cl)n1)c1nc2ccccc2[nH]1", "note": "(stereo unspecified)", "Potency": "inactive"}
{"smiles": "N#C/C(=C/c1ccc(O)c(O)c1)c1nc2ccccc2[nH]1", "Potency": "active: 3.16 µM"}
{"smiles": "CCOC(=O)C1=C(C)N=c2s/c(=C\\c3ccc(OCC(=O)O)cc3)c(=O)n2C1c1ccccc1OC", "note": "(stereo unspecified)", "Potency": "active: 39.8 µM"}
{"smiles": "COc1cccc2cc(C(=O)C3=C(O)C(=O)N(CCN4CCOCC4)C3c3cccs3)oc12", "note": "(stereo unspecified)", "Potency": "inconclusive: 25.1 µM [inhibitor, partial curve, poor fit]"}
{"smiles": "CC(NC(=O)COC(=O)C1CCN(c2ccc(C(F)(F)F)cn2)CC1)c1ccc(Br)cc1", "note": "(stereo unspecified)", "Potency": "inconclusive: 12.6 µM [inhibitor, partial curve, poor fit]"}
{"smiles": "COc1ccc(-c2cc(=O)oc3cc(OC(C)C(=O)NC4CC4)ccc23)cc1", "note": "(stereo unspecified)", "Potency": "inconclusive: 15.8 µM [inhibitor, full curve, poor fit]"}
{"smiles": "Cc1ccccc1NC(=O)Cn1cc(C(=O)c2cccs2)c2ccccc21", "Potency": "inactive"}
{"smiles": "O=S(=O)(NCCc1csc(-c2ccccc2)n1)c1ccc2c(c1)OCCO2", "Potency": "inconclusive: 89.1 µM [inhibitor, partial curve, poor fit]"}
{"smiles": "O=C(CNC(=O)Cc1ccccc1)NCC(=O)OCC(=O)c1ccc(F)cc1", "Potency": "inactive"}
{"smiles": "COc1ccccc1CNC(=O)c1ccc(CS(=O)(=O)c2ccc(C)cc2)o1", "Potency": "active: 44.7 µM"}
{"smiles": "COc1ccc(-c2cc(C(F)(F)F)c3c(=O)n(-c4ccccc4)[nH]c3n2)cc1", "Potency": "inconclusive: 31.6 µM [inhibitor, single point]"}
{"smiles": "O=C1NC(=S)S/C1=C/c1ccc(OC(=O)c2ccco2)cc1", "Potency": "inconclusive: 56.2 µM [inhibitor, partial curve, poor fit]"}
{"smiles": "CC(=O)N1CCc2c(sc(NC(=O)CSc3ccccc3)c2-c2nc3ccccc3s2)C1", "Potency": "inconclusive: 89.1 µM [inhibitor, partial curve]"}
{"smiles": "O=S(=O)(c1ccccc1)n1ccc2cccnc21", "Potency": "inconclusive: 89.1 µM [inhibitor, partial curve, poor fit]"}
{"smiles": "Cc1ccc(C)c(Nc2nn3c(=O)c4ccc(C(=O)NCc5cccnc5)cc4nc3s2)c1", "Potency": "inconclusive: 22.4 µM [inhibitor, partial curve, poor fit]"}
{"smiles": "CN(C)CCNC(=O)c1ccc(Cl)c2cc3ccccc3nc12", "Potency": "inconclusive: 14.1 µM [inhibitor, partial curve, poor fit]"}
{"smiles": "Cc1ccc(OCCn2cc(/C=C3\\C(=O)NN(c4ccccc4)C3=O)c3ccccc32)cc1", "Potency": "inconclusive: 11.2 µM [inhibitor, full curve, poor fit]"}
{"smiles": "COc1cc(Nc2nc(SCC(=O)c3ccc(Br)cc3)nc3ccccc23)cc(OC)c1", "Potency": "inconclusive: 100 µM [inhibitor, partial curve, poor fit]"}
{"smiles": "Cc1ccc(C)c(OCCNc2ccc([N+](=O)[O-])cn2)c1", "Potency": "inconclusive: 35.5 µM [inhibitor, single point]"}
{"smiles": "N#C/C(=C\\c1ccc(-c2ccc(C(=O)O)cc2)o1)C(=O)Nc1ccccc1C(=O)O", "Potency": "active: 11.2 µM"}
{"smiles": "COc1ccc(N2CC(C(=O)Nc3nnc(SCC(=O)c4ccccc4)s3)CC2=O)cc1", "note": "(stereo unspecified)", "Potency": "inconclusive: 14.1 µM [inhibitor, partial curve]"}
{"smiles": "CCCCCCn1c(SCC(=O)c2c(N)n(C)c(=O)n(C)c2=O)nc2ccccc21", "Potency": "inconclusive: 10 µM [inhibitor, partial curve]"}
{"smiles": "CCN1C(=O)c2cccc3c(N)ccc(c23)C1=O", "Potency": "inconclusive: 39.8 µM [inhibitor, single point]"}
{"smiles": "Cc1noc(NS(=O)(=O)c2ccc(NC(=O)CSc3nnc4c(n3)[nH]c3ccccc34)cc2)c1C", "Potency": "active: 25.1 µM"}
{"smiles": "CCOC(=O)c1ccc2c(c1)N(CC(=O)N(C)c1ccccc1)C(=O)c1ccccc1S2", "Potency": "inactive"}
{"smiles": "Cc1c(/C=N\\NC(=O)C2COc3ccccc3O2)c2ccccc2n1C", "note": "(stereo unspecified)", "Potency": "inconclusive: 0.631 µM [inhibitor, full curve, poor fit]"}
{"smiles": "CC(C)=CCc1cc(-c2oc3cc(O)cc(O)c3c(=O)c2O)ccc1O", "Potency": "inconclusive: 20 µM [inhibitor, full curve]"}
{"smiles": "Cc1cccc(N2CCN(C(=O)Cn3nc(C)n4cccc4c3=O)CC2C)c1", "note": "(stereo unspecified)", "Potency": "inactive"}
{"smiles": "N#CC1=C(N)Oc2n[nH]c(-c3cccnc3)c2C1c1ccc([N+](=O)[O-])o1", "note": "(stereo unspecified)", "Potency": "active: 28.2 µM"}
{"smiles": "CC(=C\\C(=O)O)/C(=C/c1ccco1)C(=O)O", "Potency": "inconclusive: 17.8 µM [inhibitor, full curve]"}
{"smiles": "CCc1ccccc1N1CC(C(=O)Nc2cc(S(=O)(=O)N3CCCC3)ccc2Cl)CC1=O", "note": "(stereo unspecified)", "Potency": "active: 15.8 µM"}
{"smiles": "Cc1cc(C)c(S(=O)(=O)N2CCN(C(=O)c3cccs3)CC2)c(C)c1", "Potency": "inconclusive: 100 µM [inhibitor, partial curve, poor fit]"}
{"smiles": "CC(C)c1cc(C(=O)N2CCCC(N3CCN(c4ccc(F)cc4)CC3)C2)no1", "note": "(stereo unspecified)", "Potency": "inactive"}
{"smiles": "CC(=O)c1cccc(NC(=O)c2oc3c(c2C)-c2nn(Cc4ccc(Cl)cc4)cc2CC3)c1", "Potency": "inactive"}
{"smiles": "C#CCOCCOCCOCCNc1nc(N2CCN(C(=O)CCCCCCCCCCNC(=O)[C@H](CCCCN)n3cc(C)nn3)CC2)nc(N2CCN(C(=O)CCCCCCCCCCNC(=O)[C@H](CO)n3cc(CCCSC)nn3)CC2)n1", "Potency": "active: 89.1 µM"}
{"smiles": "CCOc1ccc(-c2nc(N)ncc2-c2ccc(OC)cc2)c(O)c1", "Potency": "inconclusive: 7.94 µM [inhibitor, partial curve, poor fit]"}
{"smiles": "COc1ccc(CCNC(=O)C2CC(=O)N(C3CCCCC3)C2)cc1OC", "note": "(stereo unspecified)", "Potency": "inactive"}
{"smiles": "CCOC(=O)c1ccc(-n2nc(C)cc2C)cc1", "Potency": "inactive"}
{"smiles": "CCOC(=O)C(C)n1cnc2c(nnn2-c2ccc(F)cc2)c1=O", "note": "(stereo unspecified)", "Potency": "inconclusive: 100 µM [inhibitor, partial curve, poor fit]"}
{"smiles": "Cc1cc(C)nc(NNS(=O)(=O)c2c(C)cc(C(C)(C)C)cc2C)n1", "Potency": "inconclusive: 28.2 µM [inhibitor, partial curve, poor fit]"}
{"smiles": "CC(C)(C=O)C1=CC(=O)c2ccccc2C1=O", "Potency": "inconclusive: 89.1 µM [inhibitor, single point]"}
{"smiles": "CN(Cc1ccco1)C(=O)CCc1nc2sc3c(c2c(=O)[nH]1)CCCC3", "Potency": "inconclusive: 56.2 µM [inhibitor, partial curve, poor fit]"}
{"smiles": "CCC(=O)Nc1nc(C)c(-c2csc(Nc3ccc(C(=O)O)cc3)n2)s1", "Potency": "inconclusive: 15.8 µM [inhibitor, full curve, poor fit]"}
{"smiles": "O=C(/C=C/c1ccc(F)cc1)c1ccccc1Br", "Potency": "inconclusive: 31.6 µM [inhibitor, single point]"}
{"smiles": "COc1ccc(NC(=O)CN2C(=O)/C(=C3\\SC(=S)N(CCC(=O)O)C3=O)c3ccccc32)cc1", "Potency": "inconclusive: 28.2 µM [inhibitor, single point]"}
{"smiles": "CCN(CC)S(=O)(=O)c1cccc(C(=O)OC2CCOC2=O)c1", "note": "(stereo unspecified)", "Potency": "inconclusive: 20 µM [inhibitor, partial curve, poor fit]"}
{"smiles": "Cc1ccc(NC(=O)c2ccoc2C)cc1C", "Potency": "inconclusive: 39.8 µM [inhibitor, single point]"}
{"smiles": "C#Cc1ccc([C@@H]2C=C(C(=O)O)O[C@H](OCc3ccc(CO)cc3)C2)cc1", "Potency": "active: 39.8 µM"}
{"smiles": "CCc1ccc(C(=O)c2cn(CC(=O)Nc3ccc4c(c3)OCO4)c3ccc(OC)cc3c2=O)cc1", "Potency": "active: 44.7 µM"}
{"smiles": "COc1ccc(-n2ncc3c(N4CCC(C(N)=O)CC4)ncnc32)cc1", "Potency": "inactive"}
{"smiles": "O=C(CSc1nc2sc3c(c2c(=O)n1-c1ccccc1)CCCC3)N/N=C/c1ccccc1C(=O)O", "Potency": "active: 50.1 µM"}
{"smiles": "O=C(OCc1cc(=O)n2nc(-c3cccs3)sc2n1)c1ccc(Cl)cc1", "Potency": "inconclusive: 56.2 µM [inhibitor, partial curve, poor fit]"}
{"smiles": "CS(=O)(=O)N1N=C(c2ccco2)CC1c1ccco1", "note": "(stereo unspecified)", "Potency": "active: 22.4 µM"}
{"smiles": "O=CN/C=C/c1cc(O)ccc1O", "Potency": "active: 50.1 µM"}
{"smiles": "CCN(C(=O)c1nn(-c2ccc(OC)c(Cl)c2)c(=O)c2c1c1ccccc1n2C)c1cccc(C(F)(F)F)c1", "Potency": "inactive"}
{"smiles": "CSC1=N/C(=C\\c2ccccc2F)C(=O)S1", "Potency": "inactive"}
{"smiles": "Oc1ccc(-c2n[nH]c(=S)n2-c2ccc3c(c2)OCCO3)c(O)c1", "Potency": "inconclusive: 15.8 µM [inhibitor, full curve, poor fit]"}
{"smiles": "Cc1ccc2nc(Cl)c(C3CC(c4ccco4)=NN3C(=O)CCCC(=O)O)cc2c1", "note": "(stereo unspecified)", "Potency": "inconclusive: 50.1 µM [inhibitor, partial curve]"}
{"smiles": "Cc1ccc(/C=C/C(=O)NCc2ccc(S(N)(=O)=O)cc2)o1", "Potency": "inconclusive: 56.2 µM [inhibitor, partial curve, poor fit]"}
{"smiles": "Cc1cnc(C(=O)OCC(=O)Nc2cc(S(=O)(=O)N3CCOCC3)ccc2Cl)cn1", "Potency": "inconclusive: 31.6 µM [inhibitor, partial curve, poor fit]"}
{"smiles": "N#Cc1sc2nc(C3CC3)cc(-c3ccc(Cl)cc3)c2c1N", "Potency": "inconclusive: 89.1 µM [inhibitor, partial curve, poor fit]"}
{"smiles": "O=C(CSc1nnc(SCc2ccccc2Cl)s1)N/N=C/c1c[nH]c2ccccc12", "Potency": "inconclusive: 31.6 µM [inhibitor, partial curve, poor fit]"}
